The campaign covered roughly 39,000 compounds. About 220 (0.56%) showed activity. The list shows a part of the results.
Each molecule was assayed on Escherichia coli K-12 BW25113 (assay: relative growth (OD600 normalised to plate interquartile mean) (fraction); higher = less growth inhibition, active = 0.2 or less). Conditions: 50 µM; LB; incubation time: overnight (16-24 h).
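Note: static incubation at 37 °C against the wild-type strain, values averaged over two biological replicates.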

Row | SMILES | relative growth
1 | C[C@@H]1CN([C@H](C)CO)C(=O)Cc2cc(NC(=O)Cn3cnnn3)ccc2O[C@@H]1CN(C)C(=O)NC1CCCCC1 | inactive: 1.01
2 | C[C@@H]1CN([C@H](C)CO)C(=O)Cc2cc(NS(=O)(=O)c3ccc(F)cc3)ccc2O[C@H]1CN(C)Cc1ccncc1 | inactive: 1
3 | COc1cc(-c2cc(=O)c3c(=O)cc(-c4ccc(O)c(OC)c4)n(CCc4ccccc4)c3s2)ccc1O | inactive: 1.03
4 | C[C@@H]1CN([C@@H](C)CO)C(=O)c2cc(NC(=O)c3ccccc3)ccc2O[C@@H](C)CCCCO[C@@H]1CN(C)Cc1ccncc1 | inactive: 1.01
5 | COC1CC(OC2C(C)=CCC3CC(CC4(CCC(C)C(C5CCCCC5)O4)O3)OC(=O)C3C=C(C)C(=NO)C4OCC(=CC=CC2C)C34O)OC(C)C1O (stereo not drawn) | inactive: 0.846
6 | CCC[C@@H](O)C#Cc1cnc2c(c1)C(=O)N([C@H](C)CO)C[C@H](C)[C@H](CN(C)S(=O)(=O)c1cn(C)cn1)O2 | inactive: 0.999
7 | Cc1ccc(S(=O)(=O)N(C)C[C@@H]2OCCCC[C@H](C)Oc3ccc(NC(=O)Nc4ccc(C(F)(F)F)cc4)cc3C(=O)N([C@H](C)CO)C[C@H]2C)cc1 | inactive: 1.03
8 | O=c1[nH]c(=O)c2ccccc2o1 | inactive: 1.03
9 | COc1ccc(S(=O)(=O)Nc2ccc3c(c2)C(=O)N([C@@H](C)CO)C[C@@H](C)[C@@H](CN(C)C(=O)NC2CCCCC2)OCCCC[C@H](C)O3)cc1 | inactive: 0.999
10 | c1ccc2c(-c3ccncc3)c[nH]c2c1 | inactive: 0.854
11 | COc1cc(C=CC(=O)O)cc(OC)c1OC | inactive: 1.07
12 | C[C@@H]1CN([C@H](C)CO)S(=O)(=O)c2ccc(Br)cc2O[C@H]1CN(C)C(=O)c1ccc2c(c1)OCO2 | inactive: 1
13 | C[C@H](CO)N1C[C@H](C)[C@@H](CN(C)Cc2ccc(Cl)c(Cl)c2)Oc2ccc(NS(=O)(=O)c3cccs3)cc2CC1=O | inactive: 0.947
14 | COc1ccc(CN(C)C[C@H]2OCCCC[C@@H](C)Oc3ccc(NS(=O)(=O)c4ccccc4)cc3C(=O)N([C@@H](C)CO)C[C@H]2C)cc1 | inactive: 1.03
15 | COC(=O)CN[C@H]1CCS(=O)(=O)C1 | inactive: 0.995
16 | COc1ccc(S(=O)(=O)Nc2ccc3c(c2)CC(=O)N([C@@H](C)CO)C[C@@H](C)[C@@H](CN(C)Cc2ccc(C(=O)O)cc2)O3)cc1 | inactive: 1.01
17 | COc1ccc(CN(C)C[C@@H]2OCCCC[C@H](C)Oc3ccc(NS(=O)(=O)c4ccc(F)cc4)cc3C(=O)N([C@H](C)CO)C[C@@H]2C)cc1 | inactive: 0.998
18 | O=C(C[C@H]1C[C@H]2c3cc(NC(=O)Cc4ccncc4)ccc3O[C@H]2[C@@H](CO)O1)NCc1cccc(F)c1 | inactive: 1.04
19 | CO[C@H]1CN(C)C(=O)c2ccc(NC(=O)Nc3ccccc3)cc2OC[C@@H](C)N(C(=O)CN(C)C)C[C@H]1C | inactive: 0.982
20 | Cc1ccc(S(=O)(=O)N(C)C[C@@H]2OCCCC[C@@H](C)Oc3ccc(NS(=O)(=O)c4ccc(F)cc4)cc3C(=O)N([C@@H](C)CO)C[C@@H]2C)cc1 | inactive: 1.02

Row | SMILES | relative growth
21 | C[C@H](CO)N1C[C@H](C)[C@H](CN(C)C(=O)Nc2cccc3ccccc23)Oc2ccc(NC(=O)Nc3ccccc3)cc2CC1=O | inactive: 0.992
22 | C[C@H](CO)N1C[C@H](C)[C@H](CN(C)C(=O)Nc2ccccc2)Oc2ccc(NC(=O)CCCCCC(=O)Nc3ccccc3N)cc2CC1=O | inactive: 0.962
23 | COc1ccc(CN(C)C[C@H]2OCCCC[C@H](C)Oc3ccc(NC(=O)Nc4ccccc4)cc3C(=O)N([C@H](C)CO)C[C@H]2C)cc1 | inactive: 0.99
24 | O=C(c1cccs1)N1c2ccccc2Sc2ccccc21 | inactive: 1.02
25 | C[C@@H]1CN([C@H](C)CO)C(=O)c2cc(NS(=O)(=O)c3ccc(F)cc3)ccc2O[C@@H](C)CCCCO[C@@H]1CN(C)Cc1ccc2c(c1)OCO2 | inactive: 0.995
26 | Cc1cn(-c2cc(NC(=O)c3ccc(C)c(Nc4nccc(-c5cnccn5)n4)c3)cc(C(F)(F)F)c2)cn1 | inactive: 0.96
27 | Nc1ccc(S(=O)(=O)Nc2ccccn2)cc1 | inactive: 0.965
28 | C[C@H]1CCCCO[C@H](CN(C)C(=O)C2CCCCC2)[C@@H](C)CN([C@@H](C)CO)C(=O)c2cc(NS(=O)(=O)c3ccccc3)ccc2O1 | inactive: 0.967
29 | Cc1ccc(S(=O)(=O)Nc2cccc3c2O[C@@H](CN(C)C(=O)Nc2cccc4ccccc24)[C@H](C)CN([C@@H](C)CO)C3=O)cc1 | inactive: 0.993
30 | Cc1c(C(=O)O)sc(=O)n1C | inactive: 1
31 | C[C@@H]1CN([C@@H](C)CO)C(=O)c2cc(NC(=O)NC3CCCCC3)ccc2O[C@H]1CN(C)C(=O)Nc1ccc(C(F)(F)F)cc1 | inactive: 0.961
32 | COc1ccc(C#Cc2ccc3c(c2)[C@]2(C(=O)N3)[C@H](C(=O)N3CCc4cc(OC)c(OC)cc4C3)[C@H]3C(=O)O[C@H](c4ccccc4)[C@H](c4ccccc4)N3[C@@H]2c2ccc(O)cc2)cc1 | inactive: 1.02
33 | C[C@@H]1CN([C@H](C)CO)S(=O)(=O)c2ccc(C#Cc3ccncc3)cc2O[C@@H]1CN(C)C(=O)Nc1ccc2c(c1)OCO2 | inactive: 1.02
34 | CC(C)NC(=O)N(C)C[C@H]1Oc2ccc(NC(=O)NC3CCCCC3)cc2CC(=O)N([C@H](C)CO)C[C@H]1C | inactive: 0.992
35 | C[C@@H]1CN([C@@H](C)CO)C(=O)c2cc(NC(=O)Nc3ccc(C(F)(F)F)cc3)ccc2O[C@H]1CN(C)C(=O)Nc1ccccc1 | inactive: 1.05
36 | C[C@@H]1CCCCO[C@H](CN(C)C(=O)Cc2ccccc2)[C@@H](C)CN([C@@H](C)CO)C(=O)c2cc(NC(=O)Cc3ccccc3)ccc2O1 | inactive: 0.977
37 | C[C@@H]1CN([C@@H](C)CO)C(=O)c2cccc(NS(=O)(=O)c3ccc(F)cc3)c2O[C@@H]1CN(C)CC1CC1 | inactive: 1
38 | O=C(O)CC[C@H](NC(=O)CCn1nnc2ccccc2c1=O)C(=O)O | inactive: 1.01
39 | C[C@H](CO)N1C[C@H](C)[C@H](CN(C)S(C)(=O)=O)OCCCC[C@H](C)Oc2ccc(NC(=O)Nc3cccc4ccccc34)cc2C1=O | inactive: 1.03
40 | CCCN(C)C[C@@H]1OCCCC[C@@H](C)Oc2ccc(NC(=O)Nc3ccc4c(c3)OCO4)cc2C(=O)N([C@H](C)CO)C[C@H]1C | inactive: 1.03

Row | SMILES | relative growth
41 | COc1ccc(NC(=O)Nc2ccc3c(c2)CC(=O)N([C@H](C)CO)C[C@@H](C)[C@@H](CN(C)C(=O)Nc2ccc(C(F)(F)F)cc2)O3)cc1 | inactive: 1.01
42 | COc1ccc(CN(C)C[C@H]2OCCCC[C@@H](C)Oc3ccc(NS(=O)(=O)c4ccc(C)cc4)cc3C(=O)N([C@H](C)CO)C[C@H]2C)cc1 | inactive: 1.01
43 | C[C@H](NC(=O)C[C@@H]1C[C@@H]2c3cc(NC(=O)Nc4ccc(C(F)(F)F)cc4)ccc3O[C@@H]2[C@@H](CO)O1)c1ccccc1 | inactive: 1.08
44 | C[C@@H]1CCCCO[C@@H](CN(C)Cc2ccc(C(F)(F)F)cc2)[C@@H](C)CN([C@H](C)CO)C(=O)c2cc(NC(=O)C3CCCCC3)ccc2O1 | inactive: 0.987
45 | COc1ccc(C#Cc2cnc3c(c2)C(=O)N([C@H](C)CO)C[C@H](C)[C@H](CN(C)C(=O)CN(C)C)O3)cc1 | inactive: 0.978
46 | C[C@H]1CN([C@@H](C)CO)C(=O)c2cc(NS(=O)(=O)c3ccc(Cl)cc3)ccc2O[C@H]1CN(C)Cc1ccc(C(F)(F)F)cc1 | inactive: 1.03
47 | COc1ccc(S(=O)(=O)Nc2ccc3c(c2)CC(=O)N([C@@H](C)CO)C[C@@H](C)[C@H](CN(C)Cc2ccncc2)O3)cc1 | inactive: 0.995
48 | C[C@H]1CN([C@@H](C)CO)C(=O)Cc2cc(NS(=O)(=O)c3cn(C)cn3)ccc2O[C@H]1CN(C)Cc1ccncc1 | inactive: 0.996
49 | C[C@H]1CN([C@@H](C)CO)C(=O)Cc2cc(NS(=O)(=O)c3ccc(Cl)cc3)ccc2O[C@@H]1CN(C)Cc1ccc(Cl)c(Cl)c1 | inactive: 0.994
50 | CC(C)CC#Cc1cnc2c(c1)C(=O)N([C@H](C)CO)C[C@H](C)[C@@H](CN(C)C(=O)CCN1CCCCC1)O2 | inactive: 1.01
51 | C[C@@H]1CN([C@@H](C)CO)C(=O)Cc2cc(NC(=O)Nc3ccccc3)ccc2O[C@H]1CN(C)Cc1ccc(C(=O)Nc2ccccc2N)cc1 | inactive: 0.897
52 | CC(C)NC(=O)N(C)C[C@H]1Oc2c(NS(=O)(=O)c3ccc(Cl)cc3)cccc2C(=O)N([C@@H](C)CO)C[C@H]1C | inactive: 0.993
53 | C[C@H](CO)N1C[C@H](C)[C@H](CN(C)C(=O)Nc2ccc(C(F)(F)F)cc2)Oc2c(NC(=O)NC3CCCCC3)cccc2C1=O | inactive: 0.968
54 | C[C@H]1CN([C@@H](C)CO)C(=O)c2cc(/C=C/c3ccccc3)cnc2O[C@H]1CN(C)C(=O)c1cnccn1 | inactive: 1.01
55 | C[C@@H]1CN([C@@H](C)CO)C(=O)c2cc(NC(=O)Cn3cnnn3)ccc2O[C@@H]1CN(C)CC1CCCCC1 | inactive: 1.01
56 | C[C@H](CO)N1C[C@H](C)[C@H](CN(C)Cc2ccc(C(F)(F)F)cc2)OCCCC[C@H](C)Oc2ccc(NC(=O)Nc3ccc(F)cc3)cc2C1=O | inactive: 0.981
57 | Cc1ccc(S(=O)(=O)N(C)C[C@@H]2OCCCC[C@H](C)Oc3ccc(NS(=O)(=O)c4ccc(F)cc4)cc3C(=O)N([C@@H](C)CO)C[C@@H]2C)cc1 | inactive: 1.01
58 | Cc1noc(C)c1S(=O)(=O)N(C)C[C@H]1Oc2ccc(NS(=O)(=O)c3ccccc3)cc2CC(=O)N([C@H](C)CO)C[C@H]1C | inactive: 0.967
